Test results published in the supplement of paper PMC12632987.
In all, about 4,500 sequences were measured (“median log2 fold change of GCK-ALFA target abundance (FLAG IP / Myc IP barcode read proportion)”: median about 0.078, lowest 2% from about -0.6 on). The list shows a part of the results.

B1: GBRAP_160_4167 (protein)
chain: MEKLEKAKKEIKEIFKEAIEEMKGQTAENRANIMRVAFGEIILLLEEEGLLTDEVEEKLDEIEEEVVATILANPDLTDEELAELVKKAEEELFKALEESY
B2: GBRAP_184_5361 (protein)
chain: EIKHLFLEAETKEEVEKKLKEAREKIKKEGKPTVLYLELKNADLETVETAARLLKELKEEGLIEDAIIDVLDEKDEEEADKFIEVADKYGVRLVIALKDE
B3: GBRAP_74_6560 (protein)
chain: SEEKIKEIKEVAKTKSIKEFAEYILENIDELDEEALLVAAKEMLKKVKEEKDTLTEEELEAVAEAAAALADKAFTEDSSRETLKAMNELIAAVVELEKKA
B4: GBRAP_160_4628 (protein)
chain: SEKLEKALKLIDEAAEFVKSMIPEVTTEQFAHGFEAEFGSVILYLEEEGLISEETADKMMEVVDETRAYLLANPDLTDEERRALVDEARKKMKEIVKEDY
B5: GBRAP_160_4206 (protein)
chain: SEKIEKIIKDLREETEEVIELIPEESVEEVANAADVEIGSVLLEAEELGEENEEILDTIDKARDEIVKILLENKDASPEELAKKMREVTEKAIEEIKKIA
B6: GBRAP_150_3910 (protein)
chain: DLETLLTIVDTAIDLLEAILDGEYSLLPHALKVLKIAVEEAKEEEKELLELAKKALEKVEKAEKLLKEGGKKEEIDKEIKEALELAEKLRKLIEKKIKEK
B7: GBRAP_35_5567 (protein)
chain: SFDETTAEMMVNTIEALTEAVEDIDPETLKTITEQITKAAKKVIEEIKDNKEALEKIKKALEKLLKALEKRGLDDPNVKAAAEAVKEAIKEAEKAIKEAE
B8: GBRAP_11_2614 (protein)
chain: KKKALEEAAKLAKELAEVVKKLIEEGVDNEELLKEAEKLLKELEKLVKEKLDKAHQTDVEVMKELWKKMKEDPENAEEYAKQLLAAAEVLEGNYLLDIEE
B9: GBRAP_128_3254 (protein)
chain: MNPEVEKYAIEAVEKIKNSNKEEAQKIADEFFEWLKESSLEDAEQAVEVVEKRLKELSAEKLDILADAARKHLSKFSPEKANLVAGLEVEALNEAEEKEE
B10: GBRAP_160_4157 (protein)
chain: SEEVEKLKKEINEIFEEMKEDIKGETIEQRRVIIAGYMGEIIMLLFESPVVSEEVVDLAVELEDELVETLKENPELTYEEIVKLIDEVKEKILEAIKKSA
B11: GBRAP_150_3907 (protein)
chain: DLETALTIAETLIDILEAILEGEFELLPHAVKLAEALLEEAKEISEEIEKLARELLELLKKAEKLLKEGGPKEEIKKLVKEALELARKIEKLLEEKIKEE
B12: GBRAP_11_2712 (protein)
chain: NKEKLEEFAKKAEELAKKIEKLIKEGPKEEELKKLAEEAKKLAEEAKAAGLPQSIVDLLKLTAELLKEAIKDPENVVKYLKEAAAAARVAAGQLLLEAEE
B13: GBRAP_184_5365 (protein)
chain: EVEVRAVDASTEEEVEEKLKEAREEIKASGKPTTLVLFLENADLETVEKGMELLKELKDEGLIERAIVVLDDERTEEEVDKLVELADKYGVDLVVALEDE
B14: GBRAP_52_6287 (protein)
chain: SEEEVERTAREILELIRAGDLEGALALAREFVEKASLEEVLRLGELLIERSAELPPERLDAAFEVIDAIAEGIEERFGKEEEADILLARAAAAIHAALQA
B15: GBRAP_160_4127 (protein)
chain: NEEALKTLKDNAADLEATLKEIETLTPAQAATLATVTLYQAALDMDELDGKFKELEDAAVAAADDIRATAATDPAATKAVSKEKLTAAAKAFKDAAKKLE
B16: GBRAP_52_6007 (protein)
chain: MREEIRKVLEEALELVKEGKEEEAKKLLLELVKSLNEEELELLVEELAELAAEAPLEDADAVWKLAELLAEALEEAGADEALADEALARAAAALYAREQA
B17: GBRAP_128_3463 (protein)
chain: STEEAVAWARETLERIKEADLAEARALFEELAARLATLSLEEVEAVVEEIEKELPKLTAEKLEILAEVLAAARPRFDPEKRALVAEVESEALLLAEEKEE
B18: GBRAP_160_4179 (protein)
chain: SETVEEAEKEINEIFDEAIEMVKGETAENRANIVRVAFGEILLLLEEKGLLTDELGEKIREIEDRVVNTILENPDLTDEELEALLNKAREEILKALRESS
B19: GBRAP_125_2977 (protein)
chain: ASEEELEDLRLVARALGLDDEDAEEAVRLAAAHSIKGTLYAIAKALGYEELAEAIAKLTEEEAREVLRRTAAYIRAHPDITPEEAVAKLLEIAEEELAKR

Each binder was assayed against GABARAP, O95166 (assay: median log2 fold change of GCK-ALFA target abundance (FLAG IP / Myc IP barcode read proportion) (log2 ratio); each designed protein is fused to an ALFA-tag nanobody in HEK293 cells to bring the named protein to FLAG-tagged glucokinase (GCK); Myc marks an untargeted standard; higher = target protein stabilised (more abundant)). Conditions: target protein: 3xFLAG-MCP-GCK-ALFA reporter; HEK293 landing pad (RPLP).
Sequence of GABARAP, O95166 (O95166 whole entry, the tested form may be a part): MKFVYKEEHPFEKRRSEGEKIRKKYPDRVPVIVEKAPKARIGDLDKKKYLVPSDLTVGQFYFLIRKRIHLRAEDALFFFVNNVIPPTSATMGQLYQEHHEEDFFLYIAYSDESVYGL
Summary of the method: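 HEK293 landing-pad cells received a recombined binder library fused to the ALFA nanobody and were induced with 2 μg mL^−1 doxycycline, then transfected with a plasmid encoding a FLAG-tagged target and a Myc-tagged standard. Lysates were collected after 48 h for anti-FLAG and anti-Myc immunoprecipitation, and the circular RNA barcodes were reverse transcribed, amplified and sequenced. Target abundance for each binder is the median log2 ratio of FLAG to Myc barcode read proportions. Barcodes had to reach a proportion of at least 10^−7 in both replicates, each binder needed at least 3 barcodes per replicate, a pseudocount of 10^−6 was applied, and the two replicates were pooled.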
In the case of B1, the “median log2 fold change” value is reported as -0.157. In the case of B2, the “median log2 fold change” value is reported as -0.0794. For B3, the “median log2 fold change” value was 0.0878. In the case of B4, the “median log2 fold change” value is reported as -0.0549. B5 was tested, and the “median log2 fold change” value was 0.0288. In the case of B6, the “median log2 fold change” value is reported as 0.0177. For B7, the “median log2 fold change” value was 0.378. For B8, the “median log2 fold change” value was 0.237. For B9, the “median log2 fold change” value was 0.604. With B10 the “median log2 fold change” value was 0.0459. With B11 the “median log2 fold change” value was 0.0415. For B12, the “median log2 fold change” value was 0.086. In the case of B13, the “median log2 fold change” value is reported as 0.163. With B14 the “median log2 fold change” value was -0.0575. With B15 the “median log2 fold change” value was 0.00207. In the case of B16, the “median log2 fold change” value is reported as -0.00404. For B17, the “median log2 fold change” value was 0.238. B18 was tested, and the “median log2 fold change” value was -0.14. For B19, the “median log2 fold change” value was 0.0431.
